The other results are listed elsewhere or left out. Sequences were assembled here from the parent chain. Inactive controls read about 0.05.
B1: TEV protease; numbered along this chain (parent)
chain: MGESLFKGPRDYNPISSSICHLTNESDGHTTSLYGIGFGPFIITNKHLFRRNNGTLVVQSLHGVFKVKDTTTLQQHLVDGRDMIIIRMPKDFPPFPQKLKFREPQREERICLVTTNFQTKSMSSMVSDTSCTFPSGDGIFWKHWIQTKDGQCGSPLVSTRDGFIVGIHSASNFTNTNNYFTSVPKNFMELLTNQEAQQWVSGWRLNADSVLWGGHKVFMVKPEEPFQPVKEATQL

Variants of: B1
Test: raw area under fraction-flipped curve 0-4 h after induction (AUC4h, not background-subtracted), DNA-recorder readout of cleavage of the substrate (dimensionless); higher = more cleavage of the substrate by the protease variant
Settings: temperature: 34 °C; time window: 0-4 h after rhamnose induction
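Further: Bxb1 expression induced with 0.2% (w/v) L-rhamnose at OD600 near 0.5, cultures sampled hourly, flipped fraction per protease–substrate barcode pair counted by paired-end Illumina sequencing.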

Variant	area with substrate ENLDFQS	area with substrate ENLEFQS	area with substrate ENLFFQS	area with substrate ENLGFQS	area with substrate ENLHFQS	area with substrate ENLKFQS	area with substrate ENLLFQS	area with substrate ENLMFQS	area with substrate ENLNFQS	area with substrate ENLPFQS
E224D	0.0736	0.0685	0.108	0.0759	0.0698	0.0681	0.074	0.0725	0.0616	0.0569
P228F	0.0538	0.0642	0.0769	–	0.066	0.0836	0.0705	–	0.0688	0.0575
A232Y	0.0605	–	0.0933	–	0.0616	0.0525	–	–	0.0559	0.0512
P96E	–	0.0589	0.107	–	0.0448	–	–	–	0.0671	0.0658
P104S	–	0.0478	0.0453	–	0.0548	0.0613	0.0546	0.0661	–	0.0313
I110E	–	0.0783	–	–	–	–	–	–	–	–
L112M	–	0.0438	0.084	0.0773	–	0.0704	–	0.0896	0.068	0.0602
T114H	–	0.061	0.0698	0.101	0.101	–	0.0745	–	0.0436	0.0589
I164F	–	0.0443	0.0536	–	–	0.0529	–	0.0358	0.0546	–
N177Y	–	0.074	0.0731	–	–	0.0685	–	–	–	–
D208H	–	0.0571	–	–	–	0.0545	–	–	–	–
L5D	–	–	0.114	–	–	–	0.0862	0.0566	0.0656	0.0671
L5R	–	–	0.125	–	–	0.0534	–	–	0.0597	–
I86N	–	–	0.0629	–	–	0.0527	–	–	–	–
P96T	–	–	0.0721	–	–	–	–	–	–	–
P96W	–	–	0.0577	–	–	0.0852	0.0625	0.0604	0.0606	0.0704
T119I	–	–	0.0791	–	0.0739	0.0756	–	–	–	0.0689
C152H	–	–	0.0603	–	–	–	–	–	–	0.0445
C152Q	–	–	0.0643	–	0.0636	0.0649	–	–	0.0514	–
N193S	–	–	0.0906	–	0.078	0.0767	–	–	–	–
V200K	–	–	0.0682	–	–	–	–	–	0.0573	–
F218R	–	–	0.0473	0.0638	0.0649	0.0766	0.0475	0.0675	0.0716	0.0603
G8I	–	–	–	0.0644	–	–	–	0.0736	–	–
S209I	–	–	–	0.0744	–	–	–	–	–	–
G153R	–	–	–	–	–	0.044	–	–	–	–
G202K	–	–	–	–	–	0.0586	–	–	0.0646	–
D149R	–	–	–	–	–	–	0.069	–	0.0617	–
L205V	–	–	–	–	–	–	–	–	–	0.0571

Same assay, conditions: temperature: 34 °C; time window: 0-4 h after rhamnose induction

Variant	area with substrate ENLSFQS	area with substrate ENLVFQS	area with substrate ENLWFQS	area with substrate ENLQFQS	area with substrate ENLRFQS	area with substrate ENLIFQS	area with substrate ENLTFQS
E224D	0.0621	0.0987	0.0711	–	–	–	–
P228F	0.0591	–	–	0.0695	0.0687	–	–
A232Y	0.0443	0.0696	0.071	–	0.0524	0.0928	–
P96E	0.0725	–	0.087	0.0664	0.0412	0.0876	–
P104S	0.0529	–	0.0555	0.0435	–	0.0621	0.0606
L112M	0.0541	0.117	0.0635	0.0664	0.0759	–	–
T114H	0.0614	0.0672	–	–	0.0484	0.088	–
I164F	–	0.0731	–	0.0636	–	–	0.0537
D208H	–	–	0.0316	–	0.0775	–	–
L5D	–	0.0575	0.0687	–	0.0756	–	–
L5R	0.0474	–	–	–	–	0.0719	–
I86N	0.0317	–	0.0415	–	–	0.0452	–
P96T	0.0612	–	–	–	–	0.109	–
P96W	–	–	–	0.084	0.0717	0.0775	–
T119I	0.0729	0.0983	–	0.0723	0.0574	–	–
C152H	–	0.0701	0.0586	–	–	–	–
C152Q	–	–	–	0.0601	–	–	–
N193S	0.0694	–	–	–	–	–	–
V200K	–	–	0.0574	0.0568	–	–	–
F218R	–	0.0859	0.0604	–	–	–	0.0532
G8I	–	–	0.0631	–	–	–	–
S209I	0.0498	0.0612	–	–	0.0598	0.104	–
D149R	0.0516	–	–	–	–	–	–
L205V	0.0549	0.0692	–	–	–	–	–
F95M	–	–	–	0.0705	–	–	–
